# Measured values reported in PubChem BioAssay AID624296 (National Center for Advancing Translational Sciences (NCATS), 2012).
# Several values for one entry are separate records, joined by “and”; a condition that tells them apart may be missing. Identical values can stand only once. About 9,900 (2.8%) of roughly 350,000 compounds were called active. The shares of active, inactive and inconclusive entries below differ from those in the screen. The call rests on the fitted dose curve; in most records, active means well fitted activation curve with a large enough effect; inconclusive means small, poorly fitted or top-dose-only effect; inactive means no such curve, though single readings can be large or run the other way. Potencies of inconclusive entries are doubtful fits and often do not repeat.
# Experiment: A quantitative high throughput screen for small molecules that induce DNA re-replication in MCF 10a normal breast cells. Further: nearly all actives have a fitted effect of over 50% in size. On activity, positive = re-replication: % of control where 0% means no effect.
# Conditions: MCF 10A DNA re-replication, Hoechst nuclear intensity, 48 h; activity, positive = re-replication: at 46.1 µM (top of the series)
# Potency means the concentration at half of the fitted maximal effect; tags describe the fitted curve by direction and shape.
Structure (SMILES),Potency,"activity, positive = re-replication"
COc1ccc2c(c1)CC(C(=O)Nc1ccc(Cl)cc1)/C(=N/O)O2 (centres undefined),inactive,
Cc1cc(C)cc(N2CCN(C(=O)N3CCOCC3)CC2)c1,inactive,
c1ccc(CN2CCN(c3nc4ccccc4n4cnnc34)CC2)cc1,"inconclusive: 7.31 µM [activator, full curve]",
Cc1ccc2[nH]c(=O)c3cc(C(=O)NCCC(C)C)sc3c2c1,"inconclusive: 4.11 µM [activator, full curve, poor fit]",
CCCN1CCN(CCCNC(=O)CCn2nc(-c3ccccc3)ccc2=O)CC1,inactive,
O=C(N/N=C/c1cccc(O)c1)c1ccc(COc2ccc3c(c2)CCC3)o1,"inconclusive: 18.4 µM [activator, single point]",
CC(O)CNCc1ccccc1C(F)(F)F (centres undefined),"inconclusive: 32.6 µM [activator, single point]",
Cc1ccsc1/C=N/N1CCN(C2c3ccccc3-c3ccccc32)CC1,"inconclusive: 5.8 µM [activator, partial curve, poor fit]",
Cn1nc(N)nc1N1CCN(c2ccc(F)cc2)CC1,inactive,
C=C1c2ccccc2O[C@H](C(=O)OCC)[C@@H]1C1CCCCC1,"inconclusive: 29.1 µM [activator, single point]",
OCCN(CCO)c1ccc(C(c2ccccc2Cl)c2ccc(N(CCO)CCO)cc2Cl)c(Cl)c1,"inconclusive: 18.4 µM [activator, single point]",
COc1ccc(-c2cc(CCC(=O)N3CCN(c4cc(C)ccc4C)CC3)on2)cc1,"inconclusive: 18.4 µM [activator, single point]",
O=c1c(Cl)c(NCc2ccc(F)cc2)cnn1C12CC3CC(CC(C3)C1)C2,"inconclusive: 1.3 µM [activator, full curve, poor fit]",
COC(=O)c1ccc(CN2CCN(CCc3ccccc3)C(CCO)C2)cc1 (centres undefined),"inconclusive: 32.6 µM [activator, partial curve, poor fit]",
O=C(NN=Cc1ccccc1O)C(O)(c1ccccc1)c1ccccc1,inactive,
C=CCCCCCCCCc1nc(=S)[nH][nH]1,inactive,
COc1cc(NC(=O)c2cccs2)c(OC)cc1NC(=O)c1cccs1,inactive,
COc1cc(/C=C2\SC(c3ccccc3)=NC2=O)cc(Cl)c1O,"inconclusive: 9.2 µM [activator, partial curve]",
COc1ccc(NC(=O)c2sc3ncnc(N4CCN(c5ccccn5)CC4)c3c2C)cc1Cl,"inconclusive: 32.6 µM [activator, partial curve, poor fit]",
CS(=O)(=O)Nc1ccc(-c2ccc(/C=C3\SC(N)=NC3=O)o2)cc1,active: 23.1 µM,
COc1cc2[nH]c(=S)nc(NCc3cccc(Cl)c3)c2cc1OC,"inconclusive: 18.4 µM [activator, partial curve, poor fit]",
Cc1cc(C(=O)NCCN2CCN(c3cccc(Cl)c3)CC2)n(-c2ccccc2)n1,active: 25.9 µM,
CCc1ccc2oc(-c3ccc(N)cc3)nc2c1,"inconclusive: 20.6 µM [activator, single point]",

Structure (SMILES),Potency,"activity, positive = re-replication"
Cc1occc1-c1nnc(SCC(=O)Nc2ccc(F)cc2)n1Cc1ccccc1,"inconclusive: 14.1 µM [activator, single point]",
CCOc1cccc(/C=N/NC(=S)NCCN2CCOCC2)c1O,"inconclusive: 0.291 µM [activator, full curve, poor fit]",
O=C(CSc1nc2ccccc2n1CCc1ccccc1)c1ccc(O)c(O)c1,"inconclusive: 29.1 µM [activator, single point]",
CC(C)c1csc(CN2CCCC(CNC(=O)c3cccc4ccccc34)C2)n1 (centres undefined),"inconclusive: 20.6 µM [activator, partial curve, poor fit]",
O=C(COC(=O)c1cc(S(=O)(=O)Nc2ccccc2Cl)ccc1O)Nc1ccc(F)c(F)c1F,"inconclusive: 29.1 µM [activator, single point]",
CCN(CCNC(=O)c1ccc(CSc2nc3ccncc3[nH]2)cc1)c1ccccc1,"inconclusive: 29.1 µM [activator, single point]",
CCn1c(=N)n(CCOc2ccc(OC)cc2)c2ccccc21,,inactive: 3.49% [at 9.22 µM]
CC1=CC(C)(C)N2C(=O)C3(C(C#N)=C(N)Oc4cc(C)oc(=O)c43)c3cc(C)cc1c32 (centres undefined),inactive,
COc1ccc(NCC(=O)N/N=C2\CCCC(C)C2)cc1 (centres undefined),"inconclusive: 29.1 µM [activator, single point]",
Cc1ccc(CNc2nc3ccccc3n2C)cc1,"inconclusive: 32.6 µM [activator, partial curve, poor fit]",
Brc1ccccc1-c1nnc2sc(-c3ccc4c(c3)OCCO4)nn12,active: 6.51 µM,
N#Cc1c(-c2ccccc2)nc(SCC(=O)N2c3ccccc3Sc3ccccc32)[nH]c1=O,active: 20.6 µM,
Cc1ccc(C)c(N2CCN(C(=O)CC3Sc4ccccc4NC3=O)CC2)c1 (centres undefined),"inconclusive: 25.9 µM [activator, single point]",
CCCCN(C)CC(O)Cn1cc(/C=C/C(=O)c2ccc(C)cc2)c2ccccc21 (centres undefined),"inconclusive: 18.4 µM [activator, partial curve, poor fit]",
O=c1c2ccccc2c(C=Nc2cccc(S(=O)(=O)NC3=NCCCCC3)c2)c(O)n1Cc1ccccc1,"inconclusive: 14.6 µM [activator, partial curve, poor fit]",
CCn1c(CN2CCN(CCO)CC2)nc2ccccc21,"inconclusive: 3.66 µM [activator, single point]",
O=C(NC(=S)Nc1ccc(CN2CCOCC2)cc1)c1cccc(F)c1,inactive,
CCn1c(CNC(=O)c2ccc(F)cc2)cc2ccccc21,inactive,
Cc1ccc(-n2c(SCC(=O)NNC(=S)Nc3ccccc3)nc3ccccc3c2=O)cc1,"inconclusive: 29.1 µM [activator, single point]",
COc1cc2c(cc1OC)-c1cc(Nc3ccc(C(=O)O)cc3)nc(=O)n1CC2,inactive,
CCCN(C(=O)CCCSc1nc2ccccc2[nH]1)c1c(N)n(Cc2ccccc2)c(=O)[nH]c1=O,"inconclusive: 5.17 µM [activator, single point]",
COc1ccc2c(c1OC)C(=O)N1c3ccccc3C(=O)N(c3ccccc3)C21 (centres undefined),"inconclusive: 8.2 µM [activator, partial curve]",
C[C@@]12C(=O)N(Cc3ccc(-c4ccccc4)cc3)CC(=O)N1[C@H](/C=C/c1ccccc1)[C@@H]1C(=O)N(c3ccccc3)C(=O)[C@@H]12,"inconclusive: 25.9 µM [activator, single point]",

Structure (SMILES),Potency,"activity, positive = re-replication"
CCCn1nc([N+](=O)[O-])c(C(C#N)c2nc3ccccc3s2)c(Cl)c1=O (centres undefined),"inconclusive: 0.58 µM [activator, full curve, poor fit]",
COc1cc(NCc2ccccc2)c2ncn(C(C)C)c2c1,inactive,
Cc1n[nH]c(C)c1S(=O)(=O)N1CCCC(C(=O)NCC2COc3ccccc3O2)C1 (centres undefined),"inconclusive: 29.1 µM [activator, single point]",
O=C(Nc1ncnc2sc3c(c12)CCCCC3)c1ccccc1,inactive,
Cc1nc(/C(=N/O)C(N)=O)cs1,inactive,
CC(=O)Cc1cc(O)c2ccccc2c1OC(=O)c1ccc(Br)cc1,"inconclusive: 23.1 µM [activator, single point]",
Cc1cc(-c2ccc(C(C)C)c(S(=O)(=O)N3CCC(C)CC3)c2)on1,inactive,
CCOc1ccc(C(=O)CC(C(=O)O)N2CCCCC2)cc1 (centres undefined),"inconclusive: 16.4 µM [activator, single point]",
N#Cc1cnn(-c2ncnc3sc(-c4ccccc4)cc23)c1N,"inconclusive: 1.64 µM [activator, partial curve, poor fit]",
COc1ccc(F)c(CN(C)CC2CCCN(CCc3ccc(F)cc3)C2)c1 (centres undefined),"inconclusive: 23.1 µM [activator, partial curve, poor fit]",
CCCc1cc(=O)oc2cc(OCC(=O)NCCc3c[nH]c4ccc(OC)cc34)ccc12,"inconclusive: 0.13 µM [activator, full curve, poor fit]",
Cn1c(=O)c(NC2CCCCC2)c2c3c(cccc31)C(=O)c1ccccc1-2,active: 3.66 µM,
NC(C(=O)O)[C@@H]1CC(Cl)=NO1 (some centres undefined),inactive,
CC(C)(C)c1ccc(CCC2OCC(C[N+]3(C)CCOCC3)O2)cc1 (centres undefined),"inconclusive: 9.2 µM [activator, partial curve, poor fit]",
Cc1cc(=O)n2c(sc3ccccc32)c1C#N,"inconclusive: 18.4 µM [activator, partial curve, poor fit]",
O=C(CCCN1C(=O)/C(=C\c2ccccc2)SC1=S)Nc1ccc(O)cc1,"inconclusive: 25.9 µM [activator, partial curve, poor fit]",
Oc1c(Br)cc(Br)c2cccnc12,"inconclusive: 11.9 µM [activator, full curve] and inconclusive: 11.6 µM [activator, single point]",
Cc1cccc(NS(=O)(=O)c2ccc(C(=O)NCC3(N4CCCCC4)CCCCC3)cc2)c1C,inactive,
CC1CCCC2(C1)NC(=S)c1c(sc3c1CCCC3)N2 (centres undefined),inactive,
Cc1ccc(OCC(=O)OC(C)CN(C)Cc2ccccc2)cc1 (centres undefined),"inconclusive: 5.17 µM [activator, single point]",
COc1ccc(NC(=O)c2c(F)cccc2Cl)cc1S(=O)(=O)N1CCOCC1,inactive,
Cc1cc(C)nc(SCC(=O)Nc2ccnc3ccccc23)n1,inactive,
COc1cc(/C=N/NC(=S)NCCc2ccccc2)cc(OC)c1OC,"inconclusive: 20.6 µM [activator, single point]",
